This is one part of the list. Repeats are few or missing, and single values can be far off.
Columns and labels:
Test in all cases: cell count relative to DMSO control; melanoma cells; higher = more viable cells
Details in all cases: library dose: standard library concentration; 72 h
G361 = system: G361
IPC-298 = system: IPC-298
IST-MEL1 = system: IST-MEL1
LB2518-MEL = system: LB2518-MEL
LOXIMVI = system: LOXIMVI
MEL-HO = system: MEL-HO
MZ2-MEL = system: MZ2-MEL
MeWo = system: MeWo
RPMI7951 = system: RPMI7951
RVH-421 = system: RVH-421
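Also: cells treated in 1,536-well plates, then fixed and DAPI-stained, with nuclei counted from automated high-throughput microscope images.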

Row | Compound | cell count (G361) | cell count (IPC-298) | cell count (IST-MEL1) | cell count (LB2518-MEL) | cell count (LOXIMVI) | cell count (MEL-HO) | cell count (MZ2-MEL) | cell count (MeWo) | cell count (RPMI7951) | cell count (RVH-421)
1 | O=C(CCCCCCC(=O)Nc1ccccc1)NO [vorinostat] + COc1cc(N2CCC(N3CCN(C)CC3)CC2)ccc1Nc1ncc(Cl)c(Nc2ccccc2S(=O)(=O)C(C)C)n1 [NVP-TAE684] (first compound 0.4 µM, partner dose 0.4 µM) | 58% | 85.1% | 114% | 78.3% | 78.3% | 84.9% | 86% | 64% | 49.1% | 73.4%
2 | O=C(CCCCCCC(=O)Nc1ccccc1)NO [vorinostat] + Cc1cc(N2CCOCC2)cc2[nH]c(-c3c(NC[C@@H](O)c4cccc(Cl)c4)cc[nH]c3=O)nc12 [BMS536924] (first compound 0.4 µM, partner dose 1 µM) | 52.9% | 78.2% | 56.5% | 84.5% | 65.6% | 75% | 104% | 57.7% | 65.6% | 99.2%
3 | COCC[n+]1c2c(n(Cc3cnccn3)c1C)C(=O)c1ccccc1C2=O + O=C(CCCCCCC(=O)Nc1ccccc1)NO [vorinostat] (first compound 0.002 µM, partner dose 0.4 µM) | 86.6% | 64.7% | 44.5% | 34.9% | 65.7% | 109% | 29.8% | 47.8% | 78% | 86.7%
4 | Cn1c(Nc2ccc(C(F)(F)F)cc2)nc2cc(Oc3ccnc(-c4ncc(C(F)(F)F)[nH]4)c3)ccc21 + CC(C)CCN1c2nc(Nc3cc(F)c(O)c(F)c3)ncc2N(C)C(=O)C1C [BID1870] (first compound 0.4 µM, partner dose 1 µM) | 25.4% | 45.7% | 80.1% | 35.7% | 62.9% | 52.4% | 55.9% | 57% | 61.5% | 33.5%
5 | C#Cc1cccc(Nc2ncnc3cc(OCCOC)c(OCCOC)cc23)c1 [erlotinib] + COc1cc(N2CCC(N3CCN(C)CC3)CC2)ccc1Nc1ncc(Cl)c(Nc2ccccc2S(=O)(=O)C(C)C)n1 [NVP-TAE684] (first compound 4 µM, partner dose 0.4 µM) | 53.7% | 66.9% | 94.1% | 60.8% | 60.8% | 79.5% | 73.7% | 53.9% | 61.9% | 97.4%
6 | Nc1cccc2c1CN(C1CCC(=O)NC1=O)C2=O (stereo not given) [lenalidomide] + O=C(Nc1cccc(Cl)c1)Nc1ncc(CCNc2ncnc3ccsc23)s1 [SNS314] (first compound 5 µM, partner dose 0.004 µM) | 77.1% | 106% | 58.6% | 73.6% | 70% | 78.9% | 101% | 59.5% | 67.4% | 93%
7 | C#Cc1cccc(Nc2ncnc3cc(OCCOC)c(OCCOC)cc23)c1 [erlotinib] + Cn1cncc1[C@@](N)(c1ccc(Cl)cc1)c1ccc2c(c1)c(-c1cccc(Cl)c1)cc(=O)n2C [tipifarnib] (first compound 4 µM, partner dose 0.05 µM) | 59.9% | 65.7% | 88.8% | 36.9% | 66.9% | 86.7% | 74% | 65.1% | 52.7% | 58.6%
8 | OCc1c[nH]c2ccccc12 [Indole-3-carbinol] + C=CCn1c(=O)c2cnc(Nc3ccc(N4CCN(C)CC4)cc3)nc2n1-c1cccc(C(C)(C)O)n1 [MK1775] (first compound 4 µM, partner dose 0.1 µM) | 86.2% | 100% | 81.3% | 71% | 79.4% | 76.7% | 112% | 82.8% | 75.7% | 106%
9 | Cn1c(Nc2ccc(C(F)(F)F)cc2)nc2cc(Oc3ccnc(-c4ncc(C(F)(F)F)[nH]4)c3)ccc21 + Oc1cc(-c2nc(-c3ccccc3)[nH]c2-c2ccncc2)ccc1Cl [L779450] (first compound 0.4 µM, partner dose 1 µM) | 21.8% | 43.1% | 78.6% | 32.5% | 76.1% | 66.6% | 75% | 47.9% | 45.8% | 52%
10 | OCc1c[nH]c2ccccc12 [Indole-3-carbinol] + Cn1nnc2c(C(N)=O)ncn2c1=O [temozolomide] (first compound 4 µM, partner dose 10 µM) | 103% | 93.8% | 76% | 80.8% | 56.6% | 96% | 89.1% | 104% | 74.8% | 88.9%
11 | OCc1c[nH]c2ccccc12 [Indole-3-carbinol] + CCc1ccc(CCOc2ccc(CC3SC(=O)NC3=O)cc2)nc1 [pioglitazone] (first compound 4 µM, partner dose 10 µM) | 93.2% | 84.4% | 90.3% | 108% | 104% | 87.6% | 77.9% | 83.2% | 93.5% | 77.2%
12 | Nc1cccc2c1CN(C1CCC(=O)NC1=O)C2=O (stereo not given) [lenalidomide] + O=c1cc(-c2cccc3c2Sc2ccccc2S3)oc(N2CCOCC2)c1 [KU55933] (first compound 5 µM, partner dose 5 µM) | 70.5% | 92.1% | 92.2% | 107% | 109% | 81.3% | 106% | 97% | 81.2% | 118%
13 | Cn1c(Nc2ccc(C(F)(F)F)cc2)nc2cc(Oc3ccnc(-c4ncc(C(F)(F)F)[nH]4)c3)ccc21 + C[C@]1(c2nc3c(C(N)=O)cccc3[nH]2)CCCN1 [Veliparib] (first compound 0.4 µM, partner dose 7 µM) | 23.9% | 40.5% | 81.5% | 38.8% | 81.4% | 51.2% | 44.1% | 64.4% | 58.6% | 53.2%
14 | Nc1cccc2c1CN(C1CCC(=O)NC1=O)C2=O (stereo not given) [lenalidomide] + O=C(O)c1ccc(-c2c[nH]c3ncc(-c4ccccc4)cc23)cc1C1CCCC1 [GSK650394] (first compound 5 µM, partner dose 0.8 µM) | 54.6% | 79.5% | 66.7% | 81.1% | 66.7% | 71.9% | 84% | 92.2% | 73.2% | 67.3%
15 | O=C(CCCCCCC(=O)Nc1ccccc1)NO [vorinostat] + O=C(O)c1ccc(-c2c[nH]c3ncc(-c4ccccc4)cc23)cc1C1CCCC1 [GSK650394] (first compound 0.4 µM, partner dose 0.8 µM) | 45.2% | 73.3% | 72.5% | 97.4% | 90.3% | 65% | 87.1% | 67.7% | 65.5% | 82.3%
16 | Cn1c(Nc2ccc(C(F)(F)F)cc2)nc2cc(Oc3ccnc(-c4ncc(C(F)(F)F)[nH]4)c3)ccc21 + COC(=O)c1sccc1S(=O)(=O)Nc1ccc(Nc2ccccc2)cc1OC [GSK0660] (first compound 0.4 µM, partner dose 5 µM) | 23.1% | 49.4% | 83.1% | 33.2% | 91.7% | 65.8% | 66.1% | 64.5% | 49.6% | 48%
17 | Cn1c(Nc2ccc(C(F)(F)F)cc2)nc2cc(Oc3ccnc(-c4ncc(C(F)(F)F)[nH]4)c3)ccc21 + O=c1cc(-c2cccc3c2Sc2ccccc2S3)oc(N2CCOCC2)c1 [KU55933] (first compound 0.4 µM, partner dose 5 µM) | 30% | 44.3% | 88.1% | 27.2% | 77.4% | 63.6% | 57.7% | 68.5% | 47.6% | 42.6%
18 | Nc1cccc2c1CN(C1CCC(=O)NC1=O)C2=O (stereo not given) [lenalidomide] + NCC(=O)Nc1ccc(-n2nc(C(F)(F)F)cc2-c2ccc3c(ccc4ccccc43)c2)cc1 [OSU03012] (first compound 5 µM, partner dose 5 µM) | 69.9% | 51.4% | 72.2% | 79.1% | 66% | 87.2% | 80.6% | 77.8% | 97.3% | 82.2%
19 | Cn1c(Nc2ccc(C(F)(F)F)cc2)nc2cc(Oc3ccnc(-c4ncc(C(F)(F)F)[nH]4)c3)ccc21 + CCCCCCCCCCCC1=C(O)C(=O)C=C(O)C1=O [Embelin] (first compound 0.4 µM, partner dose 6 µM) | 25.7% | 45.4% | 66.8% | 50.8% | 94.1% | 57.7% | 35.2% | 51.9% | 63.2% | 42.4%
20 | Cn1c(Nc2ccc(C(F)(F)F)cc2)nc2cc(Oc3ccnc(-c4ncc(C(F)(F)F)[nH]4)c3)ccc21 + C[C@@H]1CCN(C(=O)CC#N)C[C@@H]1N(C)c1ncnc2[nH]ccc12 [CP690550] (first compound 0.4 µM, partner dose 5 µM) | 28.8% | 61.6% | 87.1% | 41% | 65.9% | 89.6% | 103% | 82.3% | 69.2% | 47.8%
21 | Cn1c(Nc2ccc(C(F)(F)F)cc2)nc2cc(Oc3ccnc(-c4ncc(C(F)(F)F)[nH]4)c3)ccc21 + N#Cc1c(O)c2c(-c3ccc(-c4ccccc4O)cc3)csc2[nH]c1=O [A769662] (first compound 0.4 µM, partner dose 10 µM) | 27.8% | 47.1% | 75.2% | 29.7% | 88.8% | 59.4% | 57.6% | 62.4% | 65.7% | 19.7%
22 | Clc1ccc(Nc2nnc(Cc3ccncc3)c3ccccc23)cc1 [vatalanib] + COc1cc2c(Oc3ccc4[nH]c(C)cc4c3F)ncnc2cc1OCCCN1CCCC1 [cediranib] (first compound 10 µM, partner dose 2 µM) | 84.9% | 75.3% | 80.8% | 104% | 70.9% | 88.1% | 73.4% | 81.7% | 60.1% | 71.2%
23 | OCc1c[nH]c2ccccc12 [Indole-3-carbinol] + CCCCCCCCCCCC1=C(O)C(=O)C=C(O)C1=O [Embelin] (first compound 4 µM, partner dose 6 µM) | 7.17% | 46% | 53.4% | 27.3% | 46.6% | 53.1% | 52.8% | 101% | 87.2% | 46.5%
24 | Clc1ccc(Nc2nnc(Cc3ccncc3)c3ccccc23)cc1 [vatalanib] + O=C(O)C(=O)Nc1sc2c(c1C(=O)O)CCNC2 [TCS401] (first compound 10 µM, partner dose 8.33333 µM) | 79.2% | 70.9% | 74.9% | 120% | 218% | 64.5% | 80.6% | 70.8% | 72.5% | 105%
25 | COCC[n+]1c2c(n(Cc3cnccn3)c1C)C(=O)c1ccccc1C2=O + C[C@@H]1CCN(C(=O)CC#N)C[C@@H]1N(C)c1ncnc2[nH]ccc12 [CP690550] (first compound 0.002 µM, partner dose 5 µM) | 94.7% | 67.2% | 55.8% | 36.9% | 77.6% | 84.9% | 37.8% | 76.5% | 131% | 102%
